Results: publication PMC4338599 (Science (New York, N.Y.), 2015)

Biological target: the molecule itself
Experiment: crystal structure

B1: PAXX […] (PAXX^[…]) (domain or fragment)
chain: not shown
binding result: binds
